Here are results for 90 compounds from PubChem BioAssay AID463173 (ICCB-Longwood Screening Facility, Harvard Medical School, 2010).

The structures appear in SMILES notation. Out of some 52,000 compounds screened, about 1,700 (3.3%) were called active. No stated cut-off is given here; in the data, active means survival mostly below about 52% (no sharp cut-off); inactive means mostly above about 56%. The list shows a part of the results.

The assay relates to Wild type. Briefly: growth inhibition of S. aureus wild type versus tarO mutant, primary screen, teichoic acid synthesis inhibitors, RN4220, OD600 (AID 463173). To be noted: S. aureus RN4220 wild type/DeltatarO growth, OD600, 18 h, hits give low values, screened at 18.75 µg/mL (by protocol).
As for `Cc1ccc(CSc2cn(CC(=O)N3CCCCC3)c3ccccc23)cc1`, the survival is inactive: 90%.
For `CCc1ccc(CN(C(=O)c2cc3ccccc3oc2=O)C2CCS(=O)(=O)C2)cc1` (stereo not given), the survival was inactive: 84%.
On to `CC(C)(C)NC(=O)COc1ccc(CNc2ccc3c(c2)OCCO3)cc1`, for which the survival is inactive: 98%.
As for `CCc1c(C)sc2c1CCN(Cc1ccc(F)cc1)C2c1ccccc1` (stereo not given), the figure is inactive: 71%; as for `CCCCNC(=O)CCCn1c(=O)c2ccccc2n(Cc2ccccc2C)c1=O`, inactive: 84%.
On to `COc1ccc(CNC(=O)COCc2cc(-c3cccs3)on2)cc1OC`, for which the survival was inactive: 80%.
Under `CCn1cc(C(=O)NCCc2ccccc2)c(=O)c2cc(S(=O)(=O)N(C)C3CCCCC3)ccc21` stands inactive: 89%.
As for `CC(=O)Nc1cccc(C(=O)NCc2ccc3c(c2)CCN3C(C)=O)c1`, the figure is inactive: 72%.
In the case of `CC(=O)c1[nH]c(C)c(C(=O)NCCc2ccc(C)cc2)c1C`, the survival was inactive: 88%.
Under `COc1ccc(-c2noc(-c3ccc(NCc4ccccc4OC)c([N+](=O)[O-])c3)n2)cc1` stands inactive: 83%; under `Cc1ccc(C2=Nc3ccccc3N(CC(=O)Nc3cccc(F)c3)C(=O)C2)cc1C`, inactive: 127%; under `O=c1oc2c3c(ccc2c2ccccc12)OCN(Cc1cccc(Cl)c1)C3`, inactive: 71%.
As for `CN(C)CCCNc1oc(/C=C/c2ccc(F)cc2)nc1C#N`, the figure is inactive: 89%.
In the case of `Cc1ccc(NC(=O)CCCn2c(=O)c3cccn3c3cccnc32)c(Cl)c1`, the survival was inactive: 88%.
As for `Cc1cc(C)c(NC(=O)CSc2nccn2Cc2ccco2)c(C)c1`, the figure is inactive: 71%.
As for `O=C(CN1CCN(Cc2ccc(Cl)cc2)C1=O)NCc1ccc(F)cc1`, the figure is inactive: 121%; as for `CCOc1ccccc1N(C)C(=O)C1CCCN(c2ncnc3onc(-c4ccc(F)cc4)c23)C1` (stereo not given), inactive: 64%; as for `Cc1c(CCNC(=O)Cc2ccccc2)sc2nc(-c3ccc(F)cc3)nn12`, inactive: 71%.
`O=C(c1ccc2c(c1)OCCO2)N(Cc1cccnc1)c1nc2ccc(F)cc2s1`: the survival is inactive: 69%.
As for `NC1=NC(=O)CC(C(=O)Nc2ccccc2)S1` (stereo not given), the figure is inactive: 112%; as for `CCOc1ccc(CNC(=O)c2cc3c(=O)n(C)c4ccccc4c3s2)cc1`, inactive: 84%; as for `Cc1ccc(NC(=O)Cn2c(=O)n(Cc3ccco3)c(=O)c3ccccc32)cc1`, inactive: 93%.
As for `CCN(CC)CCCNC(=O)c1cc(-c2ccc(OC)c(OC)c2)on1`, the figure is inactive: 73%.
With `CC1CN(C(=O)N2CCC(C(=O)NC3CCCCCC3)CC2)c2cc(Cl)ccc2O1` (stereo not given), the survival is inactive: 85%.
As for `Cc1cc(C)n2nc(CNS(=O)(=O)c3ccc(Cl)cc3)nc2n1`, the figure is inactive: 80%; as for `Cc1ccc(NC(=O)C2CCCN2S(=O)(=O)c2cccc3cccnc23)cc1` (stereo not given), inactive: 73%.
Under `COc1ccc(-c2ccnc3c(-c4ccc(F)cc4)c(C)nn23)cc1OC` stands inactive: 79%; under `COc1cc(C(=O)NC2CC(=O)N(c3cccc(F)c3)C2)cc(OC)c1OC` (stereo not given), inactive: 77%.
Turning to `O=C(Cn1cc(SCc2cccc(Cl)c2)c2ccccc21)N1CCOCC1`, the survival is inactive: 80%.
As for `O=c1[nH]c(SCc2ccc(F)cc2)nc2c1CCCC2`, the figure is inactive: 97%; as for `CCn1c(SCCN2CCCC2)nnc1C1CCCN(S(C)(=O)=O)C1` (stereo not given), inactive: 127%.
As for `COc1ccc(CNC(=O)C2CCCN(S(=O)(=O)c3ccc4c(c3)CCCN4C(C)=O)C2)cc1` (stereo not given), the figure is inactive: 68%; as for `CCc1nnc2c(NCc3ccc(F)cc3)nc3ccccc3n12`, inactive: 126%.
As for `O=c1/c(=C/c2ccc(Br)cc2)sc2nncn12`, the figure is inactive: 125%; as for `COc1ccc(NC(=O)c2ccco2)cc1NC(=O)COc1cc(C)cc(C)c1`, inactive: 129%; as for `CCC(=O)N1CCc2cc(Br)cc(S(=O)(=O)N3CCN(c4ccccc4)CC3)c21`, inactive: 84%.
For the compound `CCOc1ccc2nc(N3CCCC(C(=O)Nc4ccc(Br)c(C)c4)C3)sc2c1` (stereo not given), the survival was inactive: 85%.
Consider `COc1ccccc1N1CCN(S(=O)(=O)c2ccc(F)c(C(=O)Nc3ccc(C)c(F)c3)c2)CC1`, for which the survival was inactive: 74%.
As for `COc1ccc(CCNC(=O)c2cc(Sc3cccc(Cl)c3)nc3ccccc23)cc1OC`, the figure is inactive: 69%; as for `COc1ccc2c(c1)CC(C(=O)N1CCC(C(N)=O)CC1)CO2` (stereo not given), inactive: 70%; as for `COc1ccc2c(c1)NC(c1ccc(OCC(C)C)cc1)=NC(c1ccncc1)=N2`, inactive: 129%.
Turning to `CCOc1ccc(-c2n[nH]c3c2C(c2ccccc2OC)N(c2ccc(Br)cc2)C3=O)cc1` (stereo not given), the survival was inactive: 98%.
Under `COc1ccccc1N1CCN(C(=O)c2oc3ccccc3c2NC(=O)C(C)Oc2ccccc2)CC1` (stereo not given) stands inactive: 73%; under `Cc1ccc(C(C)C)c(OCCn2cc(C(=O)c3ccco3)c3ccccc32)c1`, inactive: 30%; under `O=C(Nc1cc(Cl)cc(Cl)c1)c1ccc(F)c(S(=O)(=O)N2CCCCCC2)c1`, inactive: 146%.
Under `CN1C(C(=O)Nc2ccc(OC(F)(F)F)cc2)=CC(c2ccc3c(c2)OCO3)=NS1(=O)=O` stands inactive: 86%.
Regarding `O=C(Cn1cccc1C(=O)c1ccccc1)NCc1ccc(F)cc1`, the survival is inactive: 91%.
Under `COc1cc2c(=O)n(Cc3ccccc3)c(=O)n(CC(=O)Nc3cc(C(F)(F)F)ccc3Cl)c2cc1OC` stands inactive: 136%; under `CCN(CC)c1ccc(NS(=O)(=O)c2ccc3c(c2)CCCN3C(C)=O)c(C)c1`, inactive: 71%; under `COC(=O)c1cc2oc(C)cc2n1Cc1c(C)cc(C)cc1C`, inactive: 33%.
In the case of `CC(C)c1cc(N)cc(C(C)C)c1O`, the survival is inactive: 112%.
Under `COc1cc2nc(SCC(=O)Nc3ccc(F)cc3)n3nc(CCn4c(C)nc5ccccc54)nc3c2cc1OC` stands inactive: 141%; under `COc1ccc(C2c3c(n(C)c4ccccc34)C(=O)N2CC(=O)Nc2ccc(Cl)cc2)cc1` (stereo not given), inactive: 83%; under `CCc1ccc(N2CCn3c2nc2c3c(=O)n(Cc3cccc(C)c3)c(=O)n2C)cc1`, inactive: 82%.
As for `CCOC(=O)c1c(C)oc2ncnc(NCCc3ccccc3)c12`, the figure is inactive: 83%; as for `Cc1ccc(NC(=O)C(=O)NCC(c2ccc3c(c2)OCO3)N2CCOCC2)c(C)c1` (stereo not given), inactive: 71%.
Turning to `O=C(CSc1ncc2c(n1)-c1ccccc1N(Cc1ccc(F)cc1)S2(=O)=O)c1ccc(Br)cc1`, the survival is inactive: 72%.
As for `CCCN1CCN(CCNC(=O)Nc2cc(OC)cc(OC)c2)CC1`, the figure is inactive: 84%; as for `Cc1ccc(OC(=O)c2snnc2C)cc1C`, inactive: 117%.
Regarding `Cc1cccc(NC(=O)CSc2nc3ccc(NC(=O)c4cccs4)cc3s2)c1`, the survival was inactive: 69%.
As for `CC(C)c1ccc(OCc2cc(=O)n3c4c(sc3n2)CCCC4)cc1`, the figure is inactive: 75%; as for `O=C(CSc1nc(-c2ccccc2)cc(=O)[nH]1)c1ccccc1`, inactive: 119%; as for `COC(=O)c1ccccc1NC(=O)CSc1nnnn1-c1ccc2c(c1)OCO2`, inactive: 112%.
Regarding `CCc1ccc(Nc2cc(C)nc3nc(Cc4ccc(Cl)cc4)nn23)cc1`, the survival is inactive: 109%.
Take `COc1ccc(OCC(=O)Nc2cc(-c3cccc(Cl)c3)nn2-c2ccccc2)cc1`: the survival is inactive: 75%.
For the compound `O=C(NC1CCCCC1)c1ccc2c(c1)sc1nc(-c3ccccc3)cn12`, the survival was inactive: 83%.
Under `N#Cc1ccc(C(=O)N2CCN(c3nc4ccc(F)cc4s3)CC2)cc1` stands inactive: 75%.
On to `COc1ccccc1NC(=O)CN(c1ccc(C(C)C)cc1)S(=O)(=O)c1c(C)noc1C`, for which the survival is inactive: 88%.
In the case of `CCOC(=O)c1ccc(CSc2nnc3cc(C)c4ccccc4n23)cc1`, the survival was inactive: 108%.
Under `COc1cc2c(cc1OC)C(c1ccc(Cl)cc1)N(c1ccc(C)c(F)c1)C(=O)C2` (stereo not given) stands inactive: 53%; under `COc1ccc(-c2oc3ncn4nc(-c5ccc(Cl)cc5)nc4c3c2-c2ccc(OC)cc2)cc1`, inactive: 69%.
Under `CCN(CC)CCN(C(=O)c1ccco1)c1nc2c(C)cccc2s1` stands inactive: 98%; under `CCOc1cccc(C(=O)Nc2nnc(S(=O)(=O)N(C)c3ccc(C)cc3)s2)c1`, inactive: 76%.
For `COc1ccc(NC(=O)CC2C(=O)N(c3ccccc3)C(=O)N2CCC2=CCCCC2)cc1` (stereo not given), the survival was inactive: 71%.
As for `Cc1ccc2c(c1)c(=O)c(C(=O)c1ccccc1)cn2Cc1ccccc1F`, the figure is inactive: 78%; as for `COc1ccc(S(=O)(=O)N(CC(=O)Nc2ccc(OC)cc2OC)c2ccc(Cl)cc2)cc1`, inactive: 131%; as for `COc1cc(NC(=O)C2CCN(S(=O)(=O)c3c(C)noc3/C=C/c3cccs3)CC2)cc(OC)c1`, inactive: 78%.
Under `CCN1C(=O)c2ccccc2S(=O)c2ccc(C(=O)NCc3ccc(C)cc3)cc21` (stereo not given) stands inactive: 85%; under `Cc1c(CNC2CCC(C)CC2)c(C(=O)O)c(C)n1Cc1ccccc1F` (stereo not given), inactive: 106%; under `COc1ccc(-c2nc(SCC(=O)c3ccc(Br)cc3)n[nH]2)cc1`, inactive: 150%.
Under `CCOc1ccccc1C1C(C(N)=O)=C(C)Nc2nc(-c3ccccc3Cl)nn21` (stereo not given) stands inactive: 130%; under `Cc1cccc(N2CC(c3nc4ccc(C)cc4[nH]3)CC2=O)c1` (stereo not given), inactive: 97%.
As to `CCN1C(=O)C2(C(C#N)=C(N)SC(N)=C2C#N)c2ccccc21`, the survival is inactive: 64%.
As for `CCC1CN(C(=O)Nc2ccccc2C(F)(F)F)c2ccccc2O1` (stereo not given), the figure is inactive: 87%; as for `COc1ccc(/C=C(/C#N)c2nc(-c3cc4ccccc4oc3=O)cs2)cc1`, inactive: 91%.
As for `O=C(NC1(C(F)(F)F)N=C(c2ccccc2)N(C2CCCCC2)C1=O)c1ccc(F)cc1` (stereo not given), the figure is inactive: 79%; as for `Cc1cc(C)n(CCc2nc3c4ccccc4nc(SCc4ccc(Cl)cc4)n3n2)n1`, inactive: 74%.
As for `CCOc1ccc(NC(=O)CC2C(=O)N(c3ccc(C)cc3)C(=O)N2C2CCCCC2)cc1` (stereo not given), the figure is inactive: 70%.
In the case of `Cn1ccc2cc(S(=O)(=O)N3CCCC(C(=O)NCc4ccc(F)cc4)C3)ccc21` (stereo not given), the survival was inactive: 45%.
As for `COC(=O)c1ccc(C2C=C(c3ccc(Cl)cc3)Nc3nc4ccccc4n32)cc1` (stereo not given), the figure is inactive: 117%.
